# PubChem BioAssay AID504706 (National Center for Advancing Translational Sciences (NCATS), 2011)
# The campaign covered roughly 320,000 compounds. About 200 (0.062%) were called active. Inconclusive means that the source gave no clear call. Such entries were picked first, then a sample of the others. Calls follow the shape of the dose curve; as a rule, active = well fitted activation curve with a large enough effect; inconclusive = small, poorly fitted or top-dose-only effect; inactive = no such curve, though single readings can be large or run the other way. No potency is given beside an inconclusive call; the fits are too rough.
# Experiment: qHTS assay for re-activators of p53 using a Luc reporter; also: nearly all actives have a fitted effect of over 45% in size; as to activity change, positive = activation: % of control where 0% means no effect
# Conditions: H1299 p53-A138V BP100-luciferase reporter, luminescence, 24 h; series mostly up to 92.2 µM; activity change, positive = activation: at the top concentration
# How it was run: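 p53-null H1299 cells stably carrying temperature-sensitive p53-A138V and a BP100-luciferase reporter were pinned with compounds (4-point, 1:5 series) and held 24 hrs at 37 deg C. Luminescence was read 10 min after detection reagent.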
# Potency is read from the fitted curve at half-maximal effect; tags tell the direction and shape of the fitted curve.
SMILES,Potency,"activity change, positive = activation"
Cc1cc(NC2CCCC2)n2nc(C)c(-c3ccccc3)c2n1,"inconclusive [activator, full curve, poor fit]",–
CC(=O)N1N=C(c2ccccc2)CC1c1ccc2c(c1)OCO2 (stereo not given),–,inactive: 15.7%
COc1cc(OC)cc(C(=O)NCC(=O)N2CCCCC2)c1,–,inactive: 0.4%
COc1ccc(Nc2ccccc2NC(=O)c2ccccc2Br)cc1,–,inactive: 3.62%
Nc1nnc(SCC(=O)N2CCN(c3ccccc3)CC2)n1-c1ccccc1,"inconclusive [activator, single point]",–
CCOC(=O)c1ccc(NC(=O)C2(c3ccc(Cl)cc3)CCCC2)cc1,–,inactive: -2.9%
CN(C(=O)c1ccc(NC(=O)Cc2ccc(NC(=O)C3CCCN(C(=O)C4CCCCC4)C3)cc2)cc1)C1CC1 (stereo not given),"inconclusive [activator, single point]",–
CC1CCN(CCCOc2ccc(OCc3ccccc3)cc2)CC1,"inconclusive [activator, full curve, poor fit]",–
COc1ccccc1N1CCN(C(=O)c2ccc(-c3nc4ccccc4s3)o2)CC1,"inconclusive [activator, full curve]",–
Cc1ccccc1N=C1Nc2ccccc2CS1,"inconclusive [activator, partial curve, poor fit]",–
Cc1ccccc1C(=O)NC(CC(C)C)C(=O)OCc1cc(=O)n2cc(Br)ccc2n1 (stereo not given),"inconclusive [activator, partial curve, poor fit]",–
Cc1ccc(OCCN2CCN(c3ncnc4sc(C)c(C)c34)CC2)cc1,–,inactive: -5.71%
CCSc1nc(C2CC2)cc(-c2cccs2)c1C#N,"inconclusive [activator, partial curve, poor fit]",–
C=CCc1ccccc1OCC(O)CN1C(=O)c2ccccc2C1=O (stereo not given),"inconclusive [activator, partial curve, poor fit]",–
CC(C)c1ccc(NC(=S)N2CCN(C)CC2)cc1,"inconclusive [activator, partial curve, poor fit]",–
O=C(COc1ccc(Cl)cc1Cl)NC(=O)N1CCOCC1,"inconclusive [activator, partial curve, poor fit]",–
O=C(Nc1cccc(S(=O)(=O)Nc2ccc(Cl)cc2)c1)c1cc2c(s1)CCCC2,"inconclusive [activator, partial curve, poor fit]",–
Cc1ccc(NC(=S)NCCc2ccc(S(N)(=O)=O)cc2)cc1C,–,inactive: -7.7%
COc1cc(/C=N/NC(=O)COc2ccc(C)cc2)ccc1OC(=O)c1cccs1,"inconclusive [activator, full curve, poor fit]",–
COc1ccc(N=C(C)c2sc3ccccc3c2O)cc1,"inconclusive [activator, full curve, poor fit]",–
COc1cccc(/C=C2/SC(=S)N(CCC(=O)N3CCOCC3)C2=O)c1,"inconclusive [activator, full curve, poor fit]",–
O=C(CSc1cccc[n+]1[O-])Nc1cc2c(cc1Cl)C(=O)c1ccccc1C2=O,"inconclusive [activator, partial curve, poor fit]",–
Cc1ccc(C(=O)CCC(=O)Nc2cc(C)ccn2)cc1,"inconclusive [activator, single point]",–
O=C(CN1CC(=O)Oc2ccccc21)OCC(=O)c1cccc(Br)c1,"inconclusive [activator, partial curve, poor fit]",–

SMILES,Potency,"activity change, positive = activation"
COc1ccc2c(=O)c3ccccc3oc2c1,"inconclusive [activator, partial curve, poor fit]",–
COc1cccc(-c2nc(CC(=O)O)cs2)c1OC,–,inactive: 1.53%
C=CCc1cccc(C=Nc2cccn3cc(-c4ccccc4)nc23)c1O,–,inactive: 13.1%
CCC(C)C(=O)N1CCc2cc(-c3csc(N)n3)ccc21 (stereo not given),"inconclusive [activator, partial curve, poor fit]",–
C/C(=N\NC(=O)Cc1ccc(O)cc1)c1cccnc1,"inconclusive [activator, single point]",–
O=C1NCCCc2c1oc1ccc(O)cc21,"inconclusive [activator, partial curve, poor fit]",–
COc1ccc(C)cc1NC(=O)C1CCN(S(=O)(=O)c2ccccc2)CC1,"inconclusive [activator, partial curve, poor fit]",–
CCNC(=S)Nc1ccc(OCc2nc3ccccc3s2)cc1,"inconclusive [activator, partial curve, poor fit]",–
O=C(Nc1ccc(S(=O)(=O)Nc2ccc(F)cc2)cc1)c1ccc(CN2CCOCC2)cc1,–,inactive: -2.31%
COc1ccc(-c2noc(CCC(=O)NCC3CCN(Cc4cccc(C)c4)CC3)n2)cc1,–,inactive: 1.13%
COc1cccc(NC(=O)C2CCCCC2)c1,"inconclusive [activator, partial curve, poor fit]",–
COc1ccc(OC)c(-c2cc(C(=O)Nc3c(C)nn(Cc4ccccc4Cl)c3C)no2)c1,–,inactive: -24.7%
COc1ccc(C(=O)C2CCCN(Cc3cccn3-c3ccc(Cl)cn3)C2)c(OC)c1 (stereo not given),–,inactive: 0.0699%
O=C(COC(=O)c1c(F)cccc1Cl)NC1CCCC1,"inconclusive [activator, partial curve, poor fit]",–
COc1ccc(C(=O)OCC(=O)Nc2c(C)n(C)n(-c3ccccc3)c2=O)cc1,–,inactive: -1.85%
Cc1ccc(/C=C(\C#N)C(=O)N2CCCC2)c(C)c1,"inconclusive [activator, single point]",–
COc1ccccc1C(=O)COC(=O)c1cccs1,"inconclusive [activator, partial curve, poor fit]",–
O=C1C(C=NCCN2CCOCC2)=C(O)c2ccccc21,"inconclusive [activator, partial curve, poor fit]",–
O=C(CCc1ccccc1)Nc1cc2c(cc1Cl)OCCO2,"inconclusive [activator, partial curve, poor fit]",–
O=C(NCCc1ccccc1)c1cnc2sccn2c1=O,"inconclusive [activator, full curve, poor fit]",–
C=CCOC(=O)C(=O)/C=C/c1ccc2c(c1)Cc1ccccc1-2,–,inactive: 6.16%
CCNC(=O)NC(=O)c1csc([N+](=O)[O-])c1,"inconclusive [activator, partial curve, poor fit]",–
c1ccc(CC2CCN(c3nc4ccccc4n4cnnc34)CC2)cc1,"inconclusive [activator, single point]",–
CC1CCCC(C)N1C(=O)CSc1nnc(-c2c[nH]c3ccccc23)o1 (stereo not given),"inconclusive [activator, partial curve, poor fit]",–

SMILES,Potency,"activity change, positive = activation"
COc1ccc(OC)c(Nc2nc(-c3cccs3)cs2)c1,"inconclusive [activator, full curve, poor fit]",–
COc1cccc(/C=C/C(=O)OCC(=O)N2c3ccccc3CC2C)c1OC (stereo not given),–,inactive: -7.75%
O=C(NC(=S)Nc1ccccc1N1CCOCC1)c1sc2ccccc2c1Cl,–,inactive: 1.78%
COc1ccc(C(=O)NNC(=O)Cc2nc3nc(C)cc(C)n3n2)cc1,–,inactive: 4.12%
O=c1[nH]cnc2cc(-c3ccccc3)sc12,"inconclusive [activator, partial curve, poor fit]",–
Cc1cccc2cc(C#N)c(NCCNS(=O)(=O)c3ccc4c(c3)OCCO4)nc12,–,inactive: 4.95%
CCC(=O)c1ccc(OC(C)C(=O)NC2(C#N)CCCCC2)cc1 (stereo not given),"inconclusive [activator, single point]",–
CSCC[C@H](NC(=O)[C@@H]1Cc2ccccc2CN1)C(=O)Nc1ccc2c(c1)OCO2,"inconclusive [activator, single point]",–
O=C(CSc1ncn[nH]1)Nc1cccc(S(=O)(=O)N2CCCCCC2)c1,–,inactive: 9.82%
Oc1cccc(/C=N/Nc2ccc(Cl)nn2)c1O,"inconclusive [activator, full curve, poor fit]",–
O=C(N/N=C/c1c(Cl)cccc1Cl)c1ccccc1F,–,inactive: 28.7%
O=C(CSc1ccc(-c2ccco2)nn1)c1ccccc1,"inconclusive [activator, full curve, poor fit]",–
O=C(c1cnn(C(=O)c2ccccc2F)c1)c1ccccc1O,"inconclusive [activator, full curve, poor fit]",–
COc1ccc(NC(=O)CCCSc2nc(-c3ccco3)cc(C(F)(F)F)n2)cc1OC,–,inactive: -6.36%
Cc1cccc(C(=O)O/N=C(\N)c2ccc(Cl)cc2)c1,"inconclusive [activator, partial curve, poor fit]",–
O=C(Nc1nc(=O)c2ccccc2s1)c1ccc(F)cc1,"inconclusive [activator, partial curve, poor fit]",–
COc1ccc(/C=N/NC(=O)c2ccncc2)cc1CSc1nc2ccccc2s1,"inconclusive [activator, full curve, poor fit]",–
CSc1ccc(CN(C)C(=O)COc2ccc(C(=O)c3ccccc3)cc2)cc1,–,inactive: 8.65%
CC(C)c1cc(C(=O)NCc2ccco2)no1,"inconclusive [activator, single point]",–
O=C(Nc1ccc(NC(=O)c2sc3ccccc3c2Cl)cc1Cl)c1ccco1,–,inactive: -3.11%
CN(C)c1ccc(C=NCC2COc3ccccc3O2)cc1 (stereo not given),–,inactive: -0.55%
CC(C)CN(C(=O)COC(=O)CNC(=O)c1ccc(Cl)cc1)C1CCS(=O)(=O)C1 (stereo not given),"inconclusive [activator, single point]",–
